The other results are listed elsewhere or left out.
Key:
Assay in all cases: glycan array binding signal (z-score within array); higher = stronger binding
Conditions in all cases: glycan notation: IUPAC condensed, linker removed
[1] = target: Fuc(a1-2)Gal
Outline: (§1)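 The binding signal is a Z-score computed within each array. Data were drawn from 3228 arrays in the Consortium for Functional Glycomics database, restricted to those with a known protein sequence. Scores were averaged over arrays of the same protein sequence at different concentrations or buffers, and over linkers, and negative values can be taken as non-binding.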

[2] = target: Fuc(a1-2)Gal(b1-3)GalNAc
Outline: as §1

[3] = target: Fuc(a1-2)Gal(b1-3)GalNAc(b1-3)Gal
Outline: as §1

[4] = target: Fuc(a1-2)Gal(b1-3)GalNAc(b1-3)Gal(a1-4)Gal(b1-4)Glc
Outline: as §1

[5] = target: Fuc(a1-2)Gal(b1-3)GalNAc(b1-4)[Neu5Ac(a2-3)]Gal(b1-4)Glc
Outline: as §1

[6] = target: Fuc(a1-2)Gal(b1-3)GlcNAc
Outline: as §1

[7] = target: Fuc(a1-2)Gal(b1-3)GlcNAc(b1-3)Gal(b1-4)Glc
Outline: as §1

[8] = target: Fuc(a1-2)Gal(b1-3)[Fuc(a1-4)]GlcNAc
Outline: as §1

[9] = target: Fuc(a1-2)Gal(b1-4)Glc
Outline: as §1

[10] = target: Fuc(a1-2)Gal(b1-4)Glc6S
Outline: as §1

[11] = target: Fuc(a1-2)Gal(b1-4)GlcNAc
Outline: as §1

[12] = target: Fuc(a1-2)Gal(b1-4)GlcNAc(b1-3)Gal(b1-4)GlcNAc
Outline: as §1

[13] = target: Fuc(a1-2)Gal(b1-4)GlcNAc(b1-3)Gal(b1-4)GlcNAc(b1-3)Gal(b1-4)GlcNAc
Outline: as §1

[14] = target: Fuc(a1-2)Gal(b1-4)GlcNAc6S
Outline: as §1

[15] = target: Fuc(a1-2)Gal(b1-4)[Fuc(a1-3)]GlcNAc
Outline: as §1

[16] = target: Fuc(a1-2)Gal(b1-4)[Fuc(a1-3)]GlcNAc(b1-3)Gal(b1-4)[Fuc(a1-3)]GlcNAc
Outline: as §1

[17] = target: Fuc(a1-2)Gal(b1-4)[Fuc(a1-3)]GlcNAc(b1-3)Gal(b1-4)[Fuc(a1-3)]GlcNAc(b1-3)Gal(b1-4)[Fuc(a1-3)]GlcNAc
Outline: as §1

[18] = target: Fuc(a1-2)Gal6S(b1-4)Glc
Outline: as §1

[19] = target: Fuc(a1-2)Gal6S(b1-4)Glc6S
Outline: as §1

[20] = target: Fuc(a1-2)Gal6S(b1-4)GlcNAc
Outline: as §1

[21] = target: Fuc(a1-2)[Gal(a1-3)]Gal
Outline: as §1

[22] = target: Fuc(a1-2)[Gal(a1-3)]Gal(b1-3)GlcNAc
Outline: as §1

[23] = target: Fuc(a1-2)[Gal(a1-3)]Gal(b1-4)Glc
Outline: as §1

[24] = target: Fuc(a1-2)[Gal(a1-3)]Gal(b1-4)GlcNAc
Outline: as §1

[25] = target: Fuc(a1-2)[Gal(a1-3)]Gal(b1-4)[Fuc(a1-3)]GlcNAc
Outline: as §1

[26] = target: Fuc(a1-2)[Gal(a1-4)]Gal(b1-4)GlcNAc
Outline: as §1

[27] = target: Fuc(a1-2)[GalNAc(a1-3)]Gal
Outline: as §1

[28] = target: Fuc(a1-2)[GalNAc(a1-3)]Gal(b1-3)GlcNAc
Outline: as §1

[29] = target: Fuc(a1-2)[GalNAc(a1-3)]Gal(b1-4)Glc
Outline: as §1

[30] = target: Fuc(a1-2)[GalNAc(a1-3)]Gal(b1-4)GlcNAc
Outline: as §1

B1: NKp30 (Homo sapiens), O14931 (protein)
chain: MAWMLLLILIMVHPGSCALWVSQPPEIRTLEGSSAFLPCSFNASQGRLAIGSVTWFRDEVVPGKEVRNGTPERFGRLAPLASSRFLHDHQAELHIRDVRGHDASIYVCRVEVLGLGVGTGNGTRLVVRKEHPQLGAGTHADPEAPEAEGAPSVFLFPPKPKDTLMISRTPEVTCVVVDVSHEDPEVKFNWYVDGVEVHNAKTPREEQYNSTYRVVSVLTVLHQDWLNGKEYKCKVSNKALPAPIEKTISKAKGQPREPQVYTLPPSRDELTKNQVSLTCLVKGFYPSDIAVEWESNGQPENNYKTTPPVLDSDGSFFLYSKLTVDKSRWQQGNVFSCSVMHEALHNHYTQKSLSLSPGK
- glycan array binding signal (z-score) [1]: 0.909
- glycan array binding signal (z-score) [2]: -0.27
- glycan array binding signal (z-score) [3]: 0.58
- glycan array binding signal (z-score) [4]: 0.331
- glycan array binding signal (z-score) [5]: -0.12
- glycan array binding signal (z-score) [6]: 0.424
- glycan array binding signal (z-score) [7]: -0.248
- glycan array binding signal (z-score) [8]: -0.395
- glycan array binding signal (z-score) [9]: -0.091
- glycan array binding signal (z-score) [10]: 0.207
- glycan array binding signal (z-score) [11]: 0.208
- glycan array binding signal (z-score) [12]: -0.739
- glycan array binding signal (z-score) [13]: -0.292
- glycan array binding signal (z-score) [14]: -0.294
- glycan array binding signal (z-score) [15]: 0.195
- glycan array binding signal (z-score) [16]: -0.389
- glycan array binding signal (z-score) [17]: -0.18
- glycan array binding signal (z-score) [18]: -0.462
- glycan array binding signal (z-score) [19]: -0.246
- glycan array binding signal (z-score) [20]: 1.01
- glycan array binding signal (z-score) [21]: 0.375
- glycan array binding signal (z-score) [22]: 0.326
- glycan array binding signal (z-score) [23]: -0.318
- glycan array binding signal (z-score) [24]: 0.11
- glycan array binding signal (z-score) [25]: -0.213
- glycan array binding signal (z-score) [26]: -0.315
- glycan array binding signal (z-score) [27]: 0.358
- glycan array binding signal (z-score) [28]: -0.186
- glycan array binding signal (z-score) [29]: -0.303
- glycan array binding signal (z-score) [30]: 0.07

Reference: the supplement of paper PMC8728848
